Data from paper PMC4336329 (PLoS ONE, 2015).
In all, about 310,000 compounds went through this assay and about 14,000 (4.5%) showed an effect of 50% or more. Effects have a minus sign here. Some of the results follow.

The molecules below were run against human ether-à-go-go-related gene (hERG) potassium channel (human, UniProt Q12809) (assay: primary screen, population patch clamp on CHO cells stably expressing hERG).
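Note: peak tail current of the secondary pulse compared with the same well before compound.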

human ether-à-go-go-related gene (hERG) potassium channel, sequence (Q12809 whole entry, looked up): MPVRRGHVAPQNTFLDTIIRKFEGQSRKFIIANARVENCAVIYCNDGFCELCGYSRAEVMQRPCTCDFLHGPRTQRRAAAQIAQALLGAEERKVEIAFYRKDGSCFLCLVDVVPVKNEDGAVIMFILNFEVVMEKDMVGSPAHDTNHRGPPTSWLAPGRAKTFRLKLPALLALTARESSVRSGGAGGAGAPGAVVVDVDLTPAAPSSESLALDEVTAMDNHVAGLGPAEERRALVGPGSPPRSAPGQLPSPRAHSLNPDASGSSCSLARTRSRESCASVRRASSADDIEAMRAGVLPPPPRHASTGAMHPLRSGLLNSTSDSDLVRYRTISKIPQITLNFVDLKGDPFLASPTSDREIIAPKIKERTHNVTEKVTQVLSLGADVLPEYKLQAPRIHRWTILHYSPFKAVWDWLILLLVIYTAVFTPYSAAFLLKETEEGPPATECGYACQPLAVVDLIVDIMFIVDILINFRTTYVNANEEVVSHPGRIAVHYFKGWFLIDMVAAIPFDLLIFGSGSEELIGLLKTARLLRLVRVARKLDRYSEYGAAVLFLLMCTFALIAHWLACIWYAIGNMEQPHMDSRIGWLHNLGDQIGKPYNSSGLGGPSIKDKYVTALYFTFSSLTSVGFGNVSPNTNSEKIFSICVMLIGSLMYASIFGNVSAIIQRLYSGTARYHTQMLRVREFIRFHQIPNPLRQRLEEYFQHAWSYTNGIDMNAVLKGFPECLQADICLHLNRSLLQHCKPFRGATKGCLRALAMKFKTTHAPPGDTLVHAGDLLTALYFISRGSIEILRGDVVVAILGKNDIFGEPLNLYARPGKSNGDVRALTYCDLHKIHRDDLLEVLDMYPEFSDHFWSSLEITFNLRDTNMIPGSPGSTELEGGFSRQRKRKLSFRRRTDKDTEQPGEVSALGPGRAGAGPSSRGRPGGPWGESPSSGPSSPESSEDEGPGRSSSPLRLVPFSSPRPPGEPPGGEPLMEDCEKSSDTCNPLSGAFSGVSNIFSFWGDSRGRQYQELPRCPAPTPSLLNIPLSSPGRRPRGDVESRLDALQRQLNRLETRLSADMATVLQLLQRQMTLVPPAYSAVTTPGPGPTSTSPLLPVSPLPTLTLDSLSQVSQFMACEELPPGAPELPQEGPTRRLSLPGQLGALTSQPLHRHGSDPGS

SMILES | hERG current change (%, negative = inhibition) at 10uM
Cc1ccc(/C=N/NC(=O)CSc2nc3ccccc3c(=O)n2-c2ccccc2C)s1 | -14.6%
CN(CC(=O)Nc1ccc(F)cc1)C(=O)C1CCN(S(=O)(=O)c2ccc3c(c2)OCCO3)CC1 | -20.9%
OCCC1CN(Cc2ccc3nsnc3c2)CCN1C1CCCC1 (stereo not shown) | -25%
O=C(O)CCCC(=O)Nc1nc(-c2ccccc2)cs1 | 8.03%
Cc1ccc(S(=O)(=O)Nc2ccccc2N2CCOCC2)cc1 | 11.7%
CCOc1ccc(CN2CCNC(=O)C2CC(=O)NCc2csc(C)n2)cc1 (stereo not shown) | 5.96%
C/C(=N\O)C(C)NC(=O)c1ccccc1 (stereo not shown) | 23%
CC(C)OCCCNCc1cccs1 | 2.03%
O=C(Nc1ccc(S(=O)(=O)N2CCC(C(=O)NC3CCCCC3)CC2)cc1)c1ccco1 | 4.01%
CCCCCC(=O)N/N=C/c1ccccc1[N+](=O)[O-] | -15.4%
Cc1c(CCC(=O)NCCCn2ccnc2)c(=O)oc2cc3oc4c(c3cc12)CCCC4 | -48.5%
O=C(Oc1cccc(C(=S)N2CCOCC2)c1)c1ccc([N+](=O)[O-])cc1[N+](=O)[O-] | -14.4%
Cc1ccc(NS(=O)(=O)c2ccc3c(c2)n(C)c(=O)c(=O)n3C)c(C)c1 | -21.3%
COc1ccc(Cn2c(C3CC3)nc3ccc(NC(=O)c4ccco4)cc3c2=O)cc1 | -7.52%
CC(=O)Nc1sc2c(c1C#N)CCN(Cc1ccccc1)C2.Cl | 9.85%
COC(=O)C1C(=O)C(C(=O)c2ccccc2)C(=O)CC1(C)C (stereo not shown) | 0.179%
COc1ccc(OC)c(NC(=O)CCc2nnc3ccc(N4CCC(C)CC4)nn23)c1 | -26.1%
Cc1cc(Br)ccc1NC(=O)CNC(=O)CSc1ncccn1 | -2.38%
COc1ccc(CC(=O)Nc2nccs2)cc1OC | -2.88%
O=[N+]([O-])c1ccccc1S(=O)(=O)NCc1cccnc1 | 18.7%
CCN(CC)c1ccc(-c2nn3c(-c4ccccc4OC)nnc3s2)cc1 | 1.59%
O=c1cc2ncc(-c3[nH]ncc3[N+](=O)[O-])cn2[nH]1 | 13.3%
Cc1cc2cc(CNC(=S)Nc3ccc(OC(F)(F)F)cc3)ccc2n1C | 16.4%

SMILES | hERG current change (%, negative = inhibition) at 10uM
C/C(=N\O)C(C)(C)Nc1ccccc1F | 4.26%
COc1ccc(OC)c(NS(=O)(=O)c2c(C)nc3sccn3c2=O)c1 | -12.5%
COCCCNC(=O)c1cccn2c(=O)c3cc4ccccc4cc3nc12 | -42.2%
CCOC(=O)N1CCN(C(=O)CCNS(=O)(=O)c2ccc3c(c2)c(=O)n(C)c(=O)n3C)CC1 | 29.8%
O=c1[nH]c(O)c(N=Nc2cc([N+](=O)[O-])ccc2O)c(=O)[nH]1 | -17.7%
O=C(CSC(=S)N1CCCCC1)Nc1nc(-c2ccccc2)c(-c2ccccc2)o1 | -8.32%
COc1ccc(CNC(=O)CN(Cc2ccccc2)C(=O)CCC(=O)Nc2nccs2)cc1 | 8.76%
O=C(CCC1CCN(C(=O)c2ccco2)CC1)NCc1ccc(F)cc1 | -72.6%
O=C(NCCC1CCCCN1S(=O)(=O)c1ccccc1)C(=O)NCC1CCCO1 (stereo not shown) | -2.54%
COc1ccc(-c2nn3c(-c4cccc(C)c4)nnc3s2)cc1OC | 16.3%
CCCCCC(=O)NNC1=NCC(Cc2ccccc2)S1 (stereo not shown) | -3.13%
COc1nccnc1NS(=O)(=O)c1ccc(NC(=S)NC(=O)/C=C/c2ccccc2)cc1 | -2.3%
O=C1CCCc2sc3c(c2N1)CCCCC3 | -0.836%
CSc1cccc(NC(=O)CN(C2CCCCC2)S(C)(=O)=O)c1 | -7.59%
CCOc1ccc(N(CC(=O)NCc2ccccc2C)S(C)(=O)=O)cc1 | -11.4%
Cc1ccc(/C=N\NC(=O)c2ccc3c(c2)OCO3)o1 | 7.74%
CCCC(O)(c1ccc(Cl)cc1)C(CN1CCOCC1)c1ccccc1 (stereo not shown) | -4.29%
Cc1cccnc1CN1CCN(C(=O)CCc2nnc(CCc3ccccc3)o2)CC1 | 7.74%
CC1NC(=O)N(C)C2NC(=O)N(C)C(c3ccccc3)C12 (stereo not shown) | 13%
O=C(N=C1SC2CS(=O)(=O)CC2N1Cc1ccccc1Cl)C1CC1 (stereo not shown) | 8.94%
COc1ccccc1CNC(=O)c1cnn2c(C(F)F)cc(C)nc12 | -26.4%
Cc1ccc(C(=O)N/C(=C\c2ccccc2)C(=O)NCc2cccnc2)cc1 | -71.9%
COc1cccc(-n2nnnc2SCC(=O)Nc2ccc(NC(C)=O)cc2)c1 | 17.5%

SMILES | hERG current change (%, negative = inhibition) at 10uM
CC(C)N(CCO)Cc1nc(C(c2ccccc2)c2ccccc2)no1 | 9.82%
O=C(c1ccc([N+](=O)[O-])cc1)N1CCC(n2nnc3cc(F)ccc32)CC1 | -71.9%
COc1cccc(C(CC(=O)NCCN2CCOCC2)NS(=O)(=O)c2ccc(C)cc2)c1OC (stereo not shown) | 5.97%
Nc1ccc(-n2nncc2-c2ccc(Cl)cc2)cc1 | -35.9%
O=C(CSC1=NS(=O)(=O)c2cc(Cl)ccc2N1)NCc1ccccc1 | 8.6%
O=C(COc1ccccc1)NCC(=O)NC1CCCCC1 | 26.1%
COc1ccc(Cl)cc1NC(=O)c1cc(-c2ccccc2)on1 | 23.1%
COc1ccccc1OC(=O)c1cc(Cl)nc2ccccc12 | 4.45%
Cc1ccccc1-c1nc(SCc2ccccn2)c2c(=O)n(C)c(=O)n(C)c2n1 | 28.7%
CCOC(=O)c1csc(NC(=O)CC2CCCC2)n1 | -17.4%
Cc1cc(C(=O)CN2C(=O)C(=O)N(C3CCCC3)C2=O)c(C)n1CCc1ccc(F)cc1 | -38.1%
O=C(Nc1nnc(-c2ccc(F)cc2)o1)c1cccc([N+](=O)[O-])c1 | -2.84%
CSC(=S)N/N=C/c1ccc(N(C)C)cc1 | 15%
CCn1cc(CNC(=S)Nc2cccc(Cl)c2C)cn1 | 9.81%
Nc1nonc1-n1nnc(C(=O)N/N=C/c2ccc3c(c2)OCO3)c1-c1ccccc1 | 17.3%
CCCCN(CC)CCCNC(=O)c1cn(C)c2ccc(S(=O)(=O)N(C)C3CCCCC3)cc2c1=O | -73.2%
Cc1cccc[n+]1CC(=O)c1ccc(NC(=O)c2ccccc2)cc1.[Br-] | 28.6%
Cc1cccc(C)c1OCCCN1CCOCC1.Cl | -1.08%
Clc1ccccc1-c1nc2ccccc2[nH]1 | -18.4%
CCOc1ccccc1NC(=O)CSc1nnc(CNC(=O)c2cccs2)o1 | -3.92%
CN1CCN(CCC(=O)Nc2ccccc2)CC1 | -5.19%
Cc1cccc(N2N=C(C(=O)Nc3nc(C)cs3)CCC2=O)c1 | 5.36%
COC(=O)c1cc(NC(=O)Nc2cccc(Cl)c2)ccc1Cl | 8.99%

SMILES | hERG current change (%, negative = inhibition) at 10uM
Cc1cccc(COC(=O)CCCNC(=O)c2ccc(Cl)cc2)c1 | -35.9%
CN(C)c1cccc2c(S(=O)(=O)NCc3ccc(S(N)(=O)=O)cc3)cccc12 | -0.0683%
COc1ccccc1NS(=O)(=O)c1ccc(C)c(C(=O)NCC(c2ccco2)N2CCCCC2)c1 (stereo not shown) | -44.9%
COc1ccc(C(=O)N(Cc2ccccc2)c2cccc(C)c2)cc1S(=O)(=O)N1CCOCC1 | -35.8%
COCC(=O)NNC(=O)Cc1ccc(Cl)cc1 | 20%
CCC(CO)NCC#Cc1ccccc1.Cl (stereo not shown) | -0.65%
CC1(C)C2CCC1(C)C(OC(=O)c1ccc(O)cc1)C2 (stereo not shown) | 4.06%
Cc1cc(C)nc(Nc2ncn[nH]2)n1 | -73.3%
N#CCC(=O)N/N=C/c1coc2ccccc2c1=O | -1.24%
CCOC(=O)c1ccc2c(c1)nc(SCC(=O)NC(C)C)n2CC | 3.95%
CC(C)C(=O)N(Cc1cc(=O)[nH]c2ccccc12)c1ccccc1 | 7.64%
O=C(O)c1cc(S(=O)(=O)N2CCCc3ccccc32)ccc1Cl | 17.6%
Cc1ccc(N2CC(C(=O)NCC3CCCO3)CC2=O)cc1Cl (stereo not shown) | 11.1%
COc1ccc(NC(=O)c2cccc3cccnc23)cc1S(N)(=O)=O | 29.2%
Cc1ccc(OC(=O)c2cc(C)nn2C(C)(C)C)cc1 | 6.98%
O=C(NCc1ccc(F)cc1)C(=O)NCC(c1ccco1)N1CCOCC1 (stereo not shown) | 1.3%
O=C1NC2(CCC3(CC2)OCCO3)NN1c1ccccc1 | -36.9%
CCNC(=S)NNC(=O)Cc1ccccc1 | 23.9%
COc1ccc(C(=O)NNC(=S)NC(=O)c2ccc(Cl)cc2)cc1 | 20%
O=C(Nc1ccc(F)cc1)Nc1sccc1-c1nc2ccccc2s1 | 1.38%
O=C(NCC1CCC(C(=O)O)CC1)c1cccnc1 (stereo not shown) | 24%
COc1nc(-c2ccncc2)nc2ccccc12 | -1.59%
